Source: patent US20250163186A1 (PHYLAXIS BIOSCIENCE, published 2025)
Where two headings read alike, the source gives them in different places.

T1: Human IgD (AbCam, Cat. No. Ab91022) (human, UniProt P01880-1 1-384)
T1 sequence (looked up): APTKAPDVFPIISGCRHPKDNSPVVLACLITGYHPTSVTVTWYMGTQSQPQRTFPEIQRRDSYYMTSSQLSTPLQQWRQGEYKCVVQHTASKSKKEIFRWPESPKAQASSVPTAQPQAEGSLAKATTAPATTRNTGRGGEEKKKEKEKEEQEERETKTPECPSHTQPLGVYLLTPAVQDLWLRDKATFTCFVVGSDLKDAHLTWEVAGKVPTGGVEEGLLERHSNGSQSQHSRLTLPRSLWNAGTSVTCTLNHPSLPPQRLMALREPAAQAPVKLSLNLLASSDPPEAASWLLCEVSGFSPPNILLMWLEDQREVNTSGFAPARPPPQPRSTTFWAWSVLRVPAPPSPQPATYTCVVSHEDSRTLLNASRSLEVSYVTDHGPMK

B1: hzB10v40-IgG1 SELF Fc region (cx13054) (Fc fusion)
chain: EVQLLESGGGEVQPGGSLRLSCVASGLTFSSYNMGWLRQAPGKEREFVGLSGSSSTSTYYAESVKGRFTISRDNAKNTVYLQMTSLRAEDTAVYYCAARRLLSTYWSDRSWDFWGQGTLVTVEPGGGG[letters of human IgG1 Fc with changes omitted]
notes: hzB10v40 VHH + GGGG linker + IgG1 SELF Fc; also called hzB10v40-SELF; hzB10v40-IgG SELF Fc
B2: hzB10v40.52-IgG1-SELF (cx13784) (Fc fusion)
chain: EVQLLESGGGEVQPGGSLRLSCVASGLTFSSYNMGWLRQAPGKEREFVGLSGVSSTSTYYAESVKGRFTISRDNAKNTGYLQMNSLRAEDTAVYYCAARRLLSTYWSHRSWDFWGQGTLVTVEPGGGG[letters of human IgG1 Fc with changes omitted]
notes: also called hzB10v40.52-SELF
B3: cx10759 (humanized IgE026-IgG SELF Fc) (Fc fusion)
chain: EVQLLESGGGEVQPGGSLRLSCAASGFTFGNYDMAWVRQAPGKRPEWVSSIDTGGGSTYYAESVKGRFTISRDNAKNTLYLQMSSLRAEDTAVYWCATDEEYALGPNEFDYYGQGTLVTVKPGGGG[letters of human IgG1 Fc with changes omitted]
notes: Humanized IgE026 VHH fused to human IgG1 SELF Fc; comparator; also called 026 VHH based anti-IgE sdAb comparator; 026 based sdAb

Key:
[1] = target: recombinant human anti-hapten dinitrophenol (DNP) IgE (rhIgE) (human, UniProt P01854-1 1-428); assay: cell-based or functional assay
human IgE [2] = target: T2, human IgE (human, UniProt P01854 1-428); assay: ELISA, blocks binding of 5 nM IgE to coated FCER1A
T2 construct: written under the same molecule; also called IgE (Abcam ab65866); soluble IgE
Experimental: (§1) The following day, plates were blocked with 1% BSA in PBS for 30 min-1 hour. […] Afterwards, the plates were PBST washed with the plate washer and detected with Peroxidase AffiniPure Donkey Anti-Human IgG, Fcγ fragment specific secondary detection antibody. Room temperature TMB was added and OD650 was measured using the Emax plate reader. […] Room temperature TMB was added and OD650 was measured using the Emax plate reader. The data was plotted and analyzed using GraphPad Prism analysis software.

human IgE [3] = target: T2, human IgE; assay: flow cytometry, blocks binding of 5 nM IgE to FCER1A on human mast cells
human IgE [4] = target: T2, human IgE; assay: SPR (Biacore T200, 37 C), IgE high density (~1400 RU) on protein L, 1:1 fit
Experimental: (§2) All experiments were done using a Biacore T200 instrument with a CM5 chip at 37° C. except immobilization of Protein L, which was done at 25° C.
(§3) For this study Flow Cell (FC) 1 was used as the reference for FC2, FC3 and FC4. Protein L (15 mg/ml stock concentration) was diluted (1:50 dilution, 0.3 mg/ml diluted concentration) in 10 mM sodium acetate buffer at pH 4.5 and immobilized onto all FCs to a level of ˜14000 RU, using the standard amine coupling chemistry. HBS-P (10 mM Hepes, pH 7.4, 150 mM NaCl, 0.05% v/v surfactant P20) was used as the immobilization running buffer. […] HBS-P was used as the capture running buffer. Overnight kinetics were performed for all analytes in the presence of HBS-P. The flow rate of all analyte solutions was maintained at 50 μL/min. The contact and dissociation times used were 120 seconds and 600 seconds, respectively. Glycine pH 1.5 was injected for 20 seconds for surface regeneration. This regeneration condition takes away all captured ligand. Therefore, fresh ligand solution was captured in the beginning of each injection cycle. Injected analyte concentrations are from 80 nM to 0.01953 nM (four-fold dilutions). All analytes were injected in duplicate.

human IgE [5] = target: T2, human IgE; assay: ELISA, human IgE coated
Experimental: as §1

human IgE [6] = target: T2, human IgE; assay: ELISA, human IgE coated; remark: listed apart in the source
human IgE [7] = target: T2, human IgE; assay: ELISA, blocks binding of 5 nM IgE to coated FCER2/CD23
Experimental: as §1

human IgE [8] = target: T2, human IgE; assay: ELISA, blocks binding of 5 nM IgE to coated FCER1A; remark: listed apart in the source
human IgE [9] = target: T2, human IgE; assay: SPR, blocks binding of 5 nM IgE to captured FCER1A
Experimental: as §2
Sensorgrams from the overnight kinetics were plotted for further evaluation.

human IgE [10] = target: T2, human IgE; assay: SPR (Biacore T200, 37 C), IgE low density (~14 RU) on protein L, 1:1 fit
Experimental: as §2, §3

human IgE [11] = target: T2, human IgE; assay: SPR (Biacore T200, 37 C), IgE medium density (~114 RU) on protein L, 1:1 fit
Experimental: as §2, §3

human IgE [12] = target: T2, human IgE; assay: ELISA, blocks binding of 5 nM IgE to coated FCER1A; remark: listed apart in the source
Experimental: as §1

[13] = target: T3, chimeric cynomolgus monkey IgE (cynomolgus monkey (Macaca fascicularis)); assay: ELISA, plate-coated cynomolgus IgE, apparent Kd (one site fit)
T3 construct: domain: CH1-4 constant domains; Generated in house in place of commercial cynomolgus IgE; also called cyno IgE

[14] = target: T1, Human IgD (AbCam, Cat. No. Ab91022); assay: ELISA, human IgD coated
[15] = target: human IgM (Novus, NBP1-97056) (human, UniProt P01871-1 1-453); assay: ELISA, human IgM coated
human IgE [16] = target: T2, human IgE; assay: ELISA, human IgE coated; remark: listed apart in the source
Experimental: as §1

human IgE [17] = target: T2, human IgE; assay: SPR (Biacore T200, 25 C), IgE captured on protein L, antibody as analyte, 1:1 fit
Experimental: (§4) All experiments were done using a Biacore T200 instrument with a CM5 chip at 25° C., Flow Cell (FC) 1 was used as the reference for FC2, and FC3 for FC4.
Protein L (15 mg/mL) was diluted (1:50 dilution, 0.3 mg/mL diluted concentration) in 10 mM sodium acetate buffer at pH 4.5 and immobilized onto FCs 1 and 2 to a level of ˜13000 RU, using the standard amine coupling chemistry. […] PBS-P was used as the capture running buffer. Overnight kinetics were performed for all analytes in the presence of PBS-P. The flow rate of all analyte solutions was maintained at 50 μL/min. The contact and dissociation times used were 120 seconds and 600 seconds, respectively. Glycine pH 2.0 was injected for 20 seconds for surface regeneration. This regeneration condition takes away all captured ligand. Therefore, fresh ligand solution was captured in the beginning of each injection cycle. Injected analyte concentrations are from 50 nM to 0.098 nM (two-fold dilutions). All analytes were injected in duplicate. Sensorgrams from the overnight kinetics were evaluated by using 1:1 kinetics model fitting.

[18] = target: human IgG2 (Athensresearch, 16-16-090707-2) (human, UniProt P01859-1 1-326 = IgG part); assay: ELISA, human IgG2 coated
human IgE [19] = target: T2, human IgE; assay: ELISA, plate-coated IgE
human IgE [20] = target: T2, human IgE; assay: SPR, blocks binding of 5 nM IgE to captured FCER1A; remark: listed apart in the source
Experimental: as §4
Anti-His antibody (1 mg/ml stock) was diluted (1:100 dilution, 0.01 mg/ml diluted concentration) in 10 mM sodium acetate buffer at pH 4.5 and immobilized onto FCs 1 and 2 to a level of ˜14000 RU, using the standard amine coupling chemistry. […] FCER1A (0.4 mg/ml stock concentration) was diluted ([…], ˜0.004 mg/ml diluted concentration) in PBS-P captured onto FC2 to levels of ˜130 RU. PBS-P was used as the capture running buffer. Overnight kinetics were performed for all analytes in the presence of PBS-P. The flow rate of all analyte solutions was maintained at 50 μL/min. The contact and dissociation times used were 120 seconds and 300 seconds, respectively. Glycine pH 1.5 was injected for 20 seconds for surface regeneration. This regeneration condition takes away all captured FCER1A. Therefore, fresh FCER1A was captured in the beginning of each injection cycle. […] All analytes were injected in duplicate. […] Sensorgrams from the overnight kinetics were plotted for further evaluation.

human IgE [21] = target: T2, human IgE; assay: ELISA, plate-coated IgE, apparent Kd (one site fit)
Description: The data was plotted and analyzed using GraphPad Prism analysis software.

human IgE [22] = target: T2, human IgE; assay: ELISA, plate-coated IgE; remark: listed apart in the source
human IgE [23] = target: T2, human IgE; assay: ELISA, plate-coated IgE, apparent Kd (one site fit); remark: listed apart in the source

T2 sequence (P01854 other isoform, or with tags, fused parts or gaps limits assumed, form in doubt): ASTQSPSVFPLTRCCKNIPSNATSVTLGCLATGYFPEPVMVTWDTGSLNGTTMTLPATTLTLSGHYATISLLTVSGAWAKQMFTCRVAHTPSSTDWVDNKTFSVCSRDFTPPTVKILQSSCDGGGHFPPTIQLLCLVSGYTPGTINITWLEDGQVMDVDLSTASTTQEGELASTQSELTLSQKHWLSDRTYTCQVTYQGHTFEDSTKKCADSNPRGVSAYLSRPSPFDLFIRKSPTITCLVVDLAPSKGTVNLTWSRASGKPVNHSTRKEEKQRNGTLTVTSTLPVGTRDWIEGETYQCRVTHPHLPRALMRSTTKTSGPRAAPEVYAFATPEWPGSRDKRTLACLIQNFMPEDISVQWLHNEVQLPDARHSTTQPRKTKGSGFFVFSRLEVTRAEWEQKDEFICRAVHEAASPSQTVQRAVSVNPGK

| Binder | IC50 (human IgE [2]) [nM] | Kd (human IgE [4]) [nM] | koff (human IgE [4]) [s⁻¹] | kon (human IgE [4]) [M⁻¹ s⁻¹] | Bmax (human IgE [5]) [OD 650] | Kd (human IgE [5]) [nM] | Kd (human IgE [6]) [nM] | IC50 (human IgE [7]) [nM] | IC50 (human IgE [8]) [nM] | Kd (human IgE [10]) [nM] | koff (human IgE [10]) [s⁻¹] | kon (human IgE [10]) [M⁻¹ s⁻¹] | Kd (human IgE [11]) [nM] | koff (human IgE [11]) [s⁻¹] | kon (human IgE [11]) [M⁻¹ s⁻¹] | also measured |
| --- | --- | --- | --- | --- | --- | --- | --- | --- | --- | --- | --- | --- | --- | --- | --- | --- |
| B1 | 2.22 | 1 | 0.00025 | 253000 | 0.946 | 0.144 | 0.124 | 4.41 | 3.25 | 0.8 | 0.00044 | 534000 | 0.6 | 0.000259 | 415000 | Activation IC50 (nM), CD63 on mast cells [1]: 2.06 nM; IC50 (human IgE [3]): 0.387 nM; IC50 (human IgE [9]): ~3.4 nM |
| B2 |  |  |  |  |  |  | 0.127 |  | 3.24 |  |  |  |  |  |  |  |
| B3 | 1.72 | 0.3 | 0.000323 | 1.07e+06 | 1.17 | 0.151 |  | 1.52 |  | 0.1 | 0.000384 | 3.74e+06 | 0.05 | 0.000371 | 7.97e+06 | IC50 (human IgE [12]): 2.92 nM; Kd [13]: 0.255 nM; binding result [14]: no binding (tested: 250 nM); binding result [15]: no binding (tested: 250 nM); Bmax (human IgE [16]): 0.932 OD 650; Kd (human IgE [16]): 0.115 nM; Kd (human IgE [17]): 0.1 nM; koff (human IgE [17]): 0.000415 s⁻¹; kon (human IgE [17]): 3.55e+06 M⁻¹ s⁻¹; binding result [18]: no binding (tested: 250 nM); Bmax (OD 650 nm) (human IgE [19]): 0.809 OD 650 nm; IC50 (human IgE [20]): ~2.2 nM; Kd (human IgE [21]): 0.198 nM; Bmax (OD 650 nm) (human IgE [22]): 1.05 OD 650 nm; Kd (human IgE [23]): 0.176 nM |
